# Test results as given in PubChem BioAssay AID2073 (Sanford-Burnham Center for Chemical Genomics, 2009).
# The other results are listed elsewhere or left out. The main result of the screen is listed elsewhere. These columns were measured beside it and carry no call.
# Molecular target: Voltage-dependent N-type calcium channel subunit alpha-1B (Homo sapiens) (UniProt Q00975)
# Test: inhibitors of Mint1-CaV2.2 protein interaction, biochemical, HTRF (AID 2073)
# Conditions: measured here: average of repeat tests, at 20 µM, stronger effect = higher value
# Chain of UniProt Q00975 (Q00975 whole entry, looked up): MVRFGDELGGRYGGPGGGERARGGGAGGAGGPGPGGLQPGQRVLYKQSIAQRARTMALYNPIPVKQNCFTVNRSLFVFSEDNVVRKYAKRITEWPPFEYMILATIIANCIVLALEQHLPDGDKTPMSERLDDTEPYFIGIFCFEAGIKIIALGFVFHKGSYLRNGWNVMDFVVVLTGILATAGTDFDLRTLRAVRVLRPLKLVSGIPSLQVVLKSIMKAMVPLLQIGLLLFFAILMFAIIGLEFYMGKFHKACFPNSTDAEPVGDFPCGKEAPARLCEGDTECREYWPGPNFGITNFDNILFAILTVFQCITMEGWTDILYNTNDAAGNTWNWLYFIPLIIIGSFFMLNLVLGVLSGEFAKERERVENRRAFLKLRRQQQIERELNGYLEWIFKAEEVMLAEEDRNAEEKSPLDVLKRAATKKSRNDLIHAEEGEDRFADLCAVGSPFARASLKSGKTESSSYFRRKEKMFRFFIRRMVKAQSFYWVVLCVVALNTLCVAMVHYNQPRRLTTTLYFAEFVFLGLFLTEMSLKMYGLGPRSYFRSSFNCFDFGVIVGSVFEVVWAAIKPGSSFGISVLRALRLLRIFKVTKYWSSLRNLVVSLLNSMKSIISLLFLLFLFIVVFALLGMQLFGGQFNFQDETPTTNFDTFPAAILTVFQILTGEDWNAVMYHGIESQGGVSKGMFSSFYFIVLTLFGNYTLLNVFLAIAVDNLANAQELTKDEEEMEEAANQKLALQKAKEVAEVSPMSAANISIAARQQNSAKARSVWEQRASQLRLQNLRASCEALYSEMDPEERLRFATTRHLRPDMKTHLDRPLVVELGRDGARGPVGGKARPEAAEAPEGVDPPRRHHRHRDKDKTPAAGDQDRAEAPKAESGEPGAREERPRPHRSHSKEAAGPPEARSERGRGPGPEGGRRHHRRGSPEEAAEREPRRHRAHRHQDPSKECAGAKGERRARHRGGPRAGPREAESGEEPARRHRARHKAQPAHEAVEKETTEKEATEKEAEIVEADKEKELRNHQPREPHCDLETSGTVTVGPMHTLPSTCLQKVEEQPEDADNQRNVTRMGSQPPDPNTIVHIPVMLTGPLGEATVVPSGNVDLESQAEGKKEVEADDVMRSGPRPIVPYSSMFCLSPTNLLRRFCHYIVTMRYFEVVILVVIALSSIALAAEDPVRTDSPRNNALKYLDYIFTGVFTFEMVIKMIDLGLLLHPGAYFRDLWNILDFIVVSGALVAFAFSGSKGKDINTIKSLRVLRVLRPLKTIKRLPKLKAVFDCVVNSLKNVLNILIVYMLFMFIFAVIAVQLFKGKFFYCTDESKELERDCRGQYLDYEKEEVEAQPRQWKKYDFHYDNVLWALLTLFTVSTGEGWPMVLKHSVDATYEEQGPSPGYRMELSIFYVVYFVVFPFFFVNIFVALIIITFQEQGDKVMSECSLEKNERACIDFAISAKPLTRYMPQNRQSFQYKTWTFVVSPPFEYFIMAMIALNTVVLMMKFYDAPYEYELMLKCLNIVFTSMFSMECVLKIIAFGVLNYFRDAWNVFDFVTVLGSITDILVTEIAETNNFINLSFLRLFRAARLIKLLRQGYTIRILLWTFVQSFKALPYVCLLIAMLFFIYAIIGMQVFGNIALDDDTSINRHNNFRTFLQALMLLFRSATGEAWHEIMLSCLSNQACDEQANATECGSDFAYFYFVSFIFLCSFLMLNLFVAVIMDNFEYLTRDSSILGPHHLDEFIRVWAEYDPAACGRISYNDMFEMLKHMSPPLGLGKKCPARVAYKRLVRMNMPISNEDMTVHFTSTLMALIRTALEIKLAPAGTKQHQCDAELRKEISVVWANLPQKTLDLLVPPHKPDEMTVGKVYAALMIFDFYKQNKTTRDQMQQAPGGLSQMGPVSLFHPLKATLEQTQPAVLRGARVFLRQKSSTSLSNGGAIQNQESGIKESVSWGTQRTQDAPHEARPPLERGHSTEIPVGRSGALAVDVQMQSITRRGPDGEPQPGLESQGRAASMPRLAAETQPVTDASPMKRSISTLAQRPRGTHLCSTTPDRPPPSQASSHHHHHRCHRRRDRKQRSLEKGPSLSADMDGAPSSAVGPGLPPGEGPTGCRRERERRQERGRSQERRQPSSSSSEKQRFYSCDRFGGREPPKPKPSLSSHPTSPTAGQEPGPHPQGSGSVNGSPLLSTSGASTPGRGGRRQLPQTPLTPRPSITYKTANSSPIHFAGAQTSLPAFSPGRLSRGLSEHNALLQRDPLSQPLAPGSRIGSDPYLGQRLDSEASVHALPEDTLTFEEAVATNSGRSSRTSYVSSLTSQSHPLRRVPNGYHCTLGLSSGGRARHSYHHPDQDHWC
row,Compound,inhibition
1,N#CC(C#N)=NNc1ccc(S(N)(=O)=O)cc1,76.5%
2,CC1=C(C(=O)O)N2C(=O)C(NC(=O)CCCC(=O)O)C2SC1 (stereo unspecified),86.6%
3,COc1ccc(N2C(=O)NC(=O)/C(=C\c3ccc([N+](=O)[O-])s3)C2=O)cc1,68.3%
4,Nc1cc2nc3ccccc3nc2cc1N,72.5%
5,COc1cccc(N2C(=O)NC(=O)/C(=C\c3ccc([N+](=O)[O-])s3)C2=O)c1,69.3%
6,CN(C)c1nc(-c2ccccc2)[n+](C)s1,74.6%
7,O=C1NC(=O)C(=Cc2ccc(SC3CCCCC3)o2)C(=O)N1,46.5%
8,O=C(O)CCn1cc(C=C2C(=O)NC(=S)NC2=O)c(-c2cccc(Cl)c2)n1,62.8%
9,O=C1NC(=S)N(c2ccc(F)cc2)C(=O)/C1=C/c1ccco1,92.3%
10,COc1cc(/C=C/c2nc3ccccc3c(=O)n2-c2ccccc2O)ccc1O,60%
11,O=C1NC(=O)N(CCc2ccc(F)cc2)C(=O)/C1=C/c1ccco1,60.3%
12,O=C(O)CCn1cc(C=C2C(=O)NC(=S)NC2=O)c(-c2ccccc2)n1,66%
13,O=C(O)CCn1cc(C=C2C(=O)NC(=S)NC2=O)c(-c2cc3ccccc3oc2=O)n1,66.7%
14,O=C(c1ccc2nc(-c3ccco3)c(-c3ccco3)nc2c1)N1CCC2(CC1)OCCO2,48.5%
15,O=C1NC(=O)N(c2ccccc2)C(=O)/C1=C/c1ccc(Sc2ccccc2)o1,68.9%
16,CC1=C(C(=O)O)N2C(=O)[C@@H](NC(=O)CCCC(=O)O)[C@H]2SC1,78%
17,Cc1ccc2c(c1)=C/C(=C\c1c(O)[nH]c(=S)[nH]c1=O)C(=O)N=2,64.2%
18,O=C1NC(=O)N(Cc2ccccc2)C(=O)/C1=C/c1cnn(-c2ccccc2)c1,34%
19,O=C1NC(=O)C(=Cc2ccc(-c3cc(Cl)ccc3[N+](=O)[O-])o2)C(=O)N1,72.8%
20,Cn1c(O)c(/C=C/C=Nc2ccccc2)c(=O)n(C)c1=S,69.2%
21,C=CCOc1ccc(CC2C(=O)N(C)C(=O)N(C)C2=O)cc1,66.2%
